Measured values: patent US20170029841A1, “METHODS AND COMPOSITIONS FOR SELECTIVE REGULATION OF PROTEIN EXPRESSION” (priority 2015, published 2017)

System: CP4-EPSPS protein
Conditions: R3 plants, tassels harvested at V8 to V12

B1: SEQ ID NO: 1: mts-siRNA target element, 95% identity to nucleotide positions 1429 to 1628 of cDNA SEQ ID NO: 17 (nucleic acid)
DNA: AGACGACGACCGTGCATGGTGATGAATCACAGACGACGAACACGCATGTCGCATCGCCGTCCTCTTTGTATCACACAGCATCACCTTCTTCGCTCTACTACTCCCCCGAGCAATCACCGACCAATAACACCAACCATCAACCTCCCCCGTCGCCGCCGCCTTCACCGTCCTCCCCTCACACCATAGAACTGCAAATGTCCG
CP4-EPSPS fluorescence signal in anther wall, tapetum and developing pollen microspores: low fluorescence signal
